Among the data in article PMC13280575 are binding values, retold here.

Results are given in words; binding and its absence hold for the method and conditions named. For part of these data: In cells and extracts the contact can be indirect. Some entries that bind do so weakly or less than the wild type. For part of these data: Sequences can lack the tags named with a protein.

The target of experiment [1] is T1, pBT-PER2 (residues 1-1255), full-length human PER2 bait (human) (UniProt O15055).
T1 sequence: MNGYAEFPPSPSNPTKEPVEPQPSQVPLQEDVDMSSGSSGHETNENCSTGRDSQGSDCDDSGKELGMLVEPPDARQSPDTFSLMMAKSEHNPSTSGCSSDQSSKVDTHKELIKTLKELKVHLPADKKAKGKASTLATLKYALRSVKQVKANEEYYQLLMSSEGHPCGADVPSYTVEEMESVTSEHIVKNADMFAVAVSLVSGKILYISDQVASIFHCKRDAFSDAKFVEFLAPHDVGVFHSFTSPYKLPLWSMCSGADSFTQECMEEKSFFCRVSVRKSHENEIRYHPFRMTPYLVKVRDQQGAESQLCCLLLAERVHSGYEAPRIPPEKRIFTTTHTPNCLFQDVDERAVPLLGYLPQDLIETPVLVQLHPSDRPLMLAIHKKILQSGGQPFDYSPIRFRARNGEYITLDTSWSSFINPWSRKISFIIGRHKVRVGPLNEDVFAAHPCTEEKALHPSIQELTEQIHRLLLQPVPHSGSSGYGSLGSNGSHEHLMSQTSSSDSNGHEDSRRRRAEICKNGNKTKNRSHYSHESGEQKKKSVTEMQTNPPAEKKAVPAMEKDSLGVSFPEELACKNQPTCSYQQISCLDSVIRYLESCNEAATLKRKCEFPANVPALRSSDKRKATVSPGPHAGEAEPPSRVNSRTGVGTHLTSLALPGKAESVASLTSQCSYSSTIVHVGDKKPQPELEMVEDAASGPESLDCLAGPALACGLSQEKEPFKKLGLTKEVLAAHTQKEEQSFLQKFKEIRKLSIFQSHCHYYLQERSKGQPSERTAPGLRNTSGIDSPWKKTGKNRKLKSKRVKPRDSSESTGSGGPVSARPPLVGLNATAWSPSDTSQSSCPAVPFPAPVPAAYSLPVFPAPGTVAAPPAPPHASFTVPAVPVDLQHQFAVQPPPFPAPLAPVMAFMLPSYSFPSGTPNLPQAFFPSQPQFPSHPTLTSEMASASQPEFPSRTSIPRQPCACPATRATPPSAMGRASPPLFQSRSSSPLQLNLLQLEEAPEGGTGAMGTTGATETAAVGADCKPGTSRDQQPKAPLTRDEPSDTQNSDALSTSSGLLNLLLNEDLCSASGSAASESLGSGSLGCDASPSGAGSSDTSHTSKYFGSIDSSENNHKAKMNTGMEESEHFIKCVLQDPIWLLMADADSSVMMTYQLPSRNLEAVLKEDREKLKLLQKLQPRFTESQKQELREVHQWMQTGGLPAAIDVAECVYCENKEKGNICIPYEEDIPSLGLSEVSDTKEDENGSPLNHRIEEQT
The experiment in a line: two-hybrid; BacterioMatch II bacterial two-hybrid screen: PER2 bait in pBT against a human liver cDNA library in pTRG; selection on 5 mM 3-AT, then 3-AT plus streptomycin; 37 °C.

Experiment [2] concerns the target T2, PER2(356–574) bait in pBT (human) (UniProt O15055).
T2 sequence: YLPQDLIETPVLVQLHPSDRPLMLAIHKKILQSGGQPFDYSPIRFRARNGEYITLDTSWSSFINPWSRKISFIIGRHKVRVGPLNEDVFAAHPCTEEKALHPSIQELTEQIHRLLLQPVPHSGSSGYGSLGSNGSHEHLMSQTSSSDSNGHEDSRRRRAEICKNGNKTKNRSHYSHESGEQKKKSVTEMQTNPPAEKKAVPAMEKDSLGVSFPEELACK
The experiment in a line: two-hybrid; BacterioMatch II bacterial two-hybrid, direct co-transformation of defined pBT-PER2 baits and pTRG-BRCA1 preys; growth on Tet/Cam, Tet/Cam/3-AT and Tet/Cam/3-AT/Str.

In experiment [3] the target is T3, PER2(683–872) bait in pBT (human) (UniProt O15055).
T3 sequence: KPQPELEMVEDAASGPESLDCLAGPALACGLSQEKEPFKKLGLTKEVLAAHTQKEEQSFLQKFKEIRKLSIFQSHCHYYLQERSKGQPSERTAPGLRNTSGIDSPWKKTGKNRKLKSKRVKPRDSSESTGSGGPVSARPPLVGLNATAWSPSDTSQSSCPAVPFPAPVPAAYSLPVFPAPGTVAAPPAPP
The experiment is described as above.

The target in experiment [4] is T4, PER2(822–1255) bait in pBT (human) (UniProt O15055).
T4 sequence: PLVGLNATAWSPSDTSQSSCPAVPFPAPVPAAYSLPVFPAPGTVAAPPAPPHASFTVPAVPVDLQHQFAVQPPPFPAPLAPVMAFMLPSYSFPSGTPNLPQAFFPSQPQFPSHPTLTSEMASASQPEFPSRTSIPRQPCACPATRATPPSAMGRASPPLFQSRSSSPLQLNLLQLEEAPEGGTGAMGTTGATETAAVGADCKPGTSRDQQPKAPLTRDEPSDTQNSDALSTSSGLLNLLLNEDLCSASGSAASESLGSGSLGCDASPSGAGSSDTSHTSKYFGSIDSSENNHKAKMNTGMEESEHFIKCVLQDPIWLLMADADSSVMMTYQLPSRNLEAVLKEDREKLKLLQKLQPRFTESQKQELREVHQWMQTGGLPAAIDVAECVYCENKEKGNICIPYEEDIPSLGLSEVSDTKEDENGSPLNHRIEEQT
The experiment is described as above.

Experiment [5] has as its target T1, pBT-PER2 (residues 1-1255), full-length human PER2 bait (human). The description is as above.
Experiment [6] addresses T5, GST-PER2(173–355) (human) (UniProt O15055).
T5 sequence: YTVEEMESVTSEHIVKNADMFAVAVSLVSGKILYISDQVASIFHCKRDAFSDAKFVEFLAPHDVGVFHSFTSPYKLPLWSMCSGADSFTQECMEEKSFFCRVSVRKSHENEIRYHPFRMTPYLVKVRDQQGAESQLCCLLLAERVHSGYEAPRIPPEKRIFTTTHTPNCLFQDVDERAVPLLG
The experiment in a line: condition: 20 μg GST fusion protein, 3 μL in vitro translated protein; pull-down; 20 μg GST fusion protein on glutathione-Sepharose beads with 3 μL in vitro translated [35S]-labelled protein; 20 mM Tris-HCl pH 7.4, 100 mM NaCl, 5 mM EDTA, 0.1 % Triton X-100; 1 h at 4 °C; washes with 100 mM and 1 M NaCl; autoradiography; only the target purified.

Experiment [7] addresses T6, GST-PER2(873–1120) (human) (UniProt O15055).
T6 sequence: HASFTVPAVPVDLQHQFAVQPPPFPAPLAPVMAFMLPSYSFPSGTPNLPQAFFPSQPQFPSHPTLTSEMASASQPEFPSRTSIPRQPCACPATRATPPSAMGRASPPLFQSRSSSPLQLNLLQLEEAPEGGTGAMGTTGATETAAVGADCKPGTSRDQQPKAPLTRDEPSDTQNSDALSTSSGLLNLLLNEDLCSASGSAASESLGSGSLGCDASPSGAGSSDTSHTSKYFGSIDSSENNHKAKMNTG
The description is as above.

The target of experiment [8] is T7, GST-PER2(575–682) (human) (UniProt O15055).
T7 sequence: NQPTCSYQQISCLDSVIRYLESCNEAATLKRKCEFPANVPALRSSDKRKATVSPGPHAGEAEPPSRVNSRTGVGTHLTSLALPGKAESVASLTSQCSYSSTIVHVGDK
Described as above.

A further experiment deals with T8, GST-PER2(1–172) (human) (UniProt O15055).
T8 sequence: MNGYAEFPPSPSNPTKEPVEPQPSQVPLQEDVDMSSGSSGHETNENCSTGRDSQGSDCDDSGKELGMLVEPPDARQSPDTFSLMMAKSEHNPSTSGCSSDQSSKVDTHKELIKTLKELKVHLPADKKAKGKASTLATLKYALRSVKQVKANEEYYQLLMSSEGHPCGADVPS
The description is as above.

Experiment [9] deals with T9, GST-PER2(1121–1255) (human) (UniProt O15055).
T9 sequence: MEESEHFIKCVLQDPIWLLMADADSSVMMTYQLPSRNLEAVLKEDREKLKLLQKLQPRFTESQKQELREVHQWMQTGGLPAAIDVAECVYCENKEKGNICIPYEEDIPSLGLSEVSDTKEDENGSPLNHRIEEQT
Described as above.

For experiment [10], the target named is T10, GST-PER2(683–872) (human) (UniProt O15055).
T10 sequence: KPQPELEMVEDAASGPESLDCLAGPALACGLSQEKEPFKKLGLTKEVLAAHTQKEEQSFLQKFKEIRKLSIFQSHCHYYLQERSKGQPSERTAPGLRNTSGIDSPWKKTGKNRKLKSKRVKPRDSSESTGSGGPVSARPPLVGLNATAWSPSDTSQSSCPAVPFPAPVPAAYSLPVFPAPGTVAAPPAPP
The experiment in a line: pull-down; 20 μg GST fusion protein on glutathione-Sepharose beads with 3 μL in vitro translated [35S]-labelled protein; 20 mM Tris-HCl pH 7.4, 100 mM NaCl, 5 mM EDTA, 0.1 % Triton X-100; 1 h at 4 °C; washes with 100 mM and 1 M NaCl; autoradiography; only the target purified.

Experiment [11] addresses T11, GST-PER2(356–574) (human) (UniProt O15055).
T11 sequence: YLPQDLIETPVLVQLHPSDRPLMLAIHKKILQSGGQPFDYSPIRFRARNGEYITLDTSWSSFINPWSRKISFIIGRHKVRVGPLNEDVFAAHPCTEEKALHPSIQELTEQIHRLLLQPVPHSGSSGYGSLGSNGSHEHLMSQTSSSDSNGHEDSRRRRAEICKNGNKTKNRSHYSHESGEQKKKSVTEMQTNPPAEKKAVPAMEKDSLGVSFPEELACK
The description is as above.

B1: BRCA1 residues 1670–1863 (BRCT domain) prey in pTRG (domain or fragment, UniProt P38398 1670-1863)
chain: RKHHITLTNLITEETTHVVMKTDAEFVCERTLKYFLGIAGGKWVVSYFWVTQSIKERKMLNEHDFEVRGDVVNGRNHQGPKRARESQDRKIFRGLEICCYGPFTNMPTDQLEWMVQLCGASVVKELSSFTLGTGVHPIVVVQPDAWTEDNGFHAIGQMCEAPVVTREWVLDSVALYQCQELDTYLIPQIPHSHY
As to B1, the binding entry in experiment [1], in experiment [2], in experiment [3], in experiment [4] and in experiment [5] was “binds” each time.

B2: FLAG-BRCA1 (1670–1863), in vitro translated (domain or fragment, UniProt P38398 1670-1863)
chain: RKHHITLTNLITEETTHVVMKTDAEFVCERTLKYFLGIAGGKWVVSYFWVTQSIKERKMLNEHDFEVRGDVVNGRNHQGPKRARESQDRKIFRGLEICCYGPFTNMPTDQLEWMVQLCGASVVKELSSFTLGTGVHPIVVVQPDAWTEDNGFHAIGQMCEAPVVTREWVLDSVALYQCQELDTYLIPQIPHSHY
modifications: [35S]-methionine label
B2: the binding result in [6] is given as “no binding”; in experiment [7], “no binding”; in experiment [8] it was “no binding”; in the experiment with GST-PER2(1–172) (human) it was “no binding”; in experiment [9], “no binding”; in experiment [10], “binds”. For the same molecule, in [11], the binding result is “binds”.
